Measured values from the BET-seq Pho4 binding data (Le et al. 2018).
The list shows a part of the results. These are noisy estimates, calculated here from bound and input reads.

molecular target: T1, Pho4 (S. cerevisiae) (UniProt P07270); experiment: relative binding free energy (BET-seq); higher = weaker binding; details: reference: library average
T1 sequence: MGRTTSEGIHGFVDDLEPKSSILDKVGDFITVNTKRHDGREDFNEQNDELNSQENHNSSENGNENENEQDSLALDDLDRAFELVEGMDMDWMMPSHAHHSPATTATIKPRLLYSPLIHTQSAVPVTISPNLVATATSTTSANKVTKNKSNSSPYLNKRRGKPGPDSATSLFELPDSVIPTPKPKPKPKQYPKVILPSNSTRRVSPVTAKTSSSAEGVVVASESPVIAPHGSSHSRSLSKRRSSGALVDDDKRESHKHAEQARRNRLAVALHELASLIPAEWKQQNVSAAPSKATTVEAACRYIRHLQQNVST

Sequence | relative binding free energy [kcal/mol]
GTTATCACGTGGGAGC | 0.22
CGAAGCACGTGGGTTG | -0.17
TGGGGCACGTGGTGGT | -0.12
AGTGTCACGTGTCAGT | 0.05
GCTGGCACGTGAGTTT | 0.2
GAGTACACGTGTGCTT | 0.23
GAGCTCACGTGGTAGG | 0.27
TTCGTCACGTGATGTG | 0.08
CGGGACACGTGTGGTT | 0.08
CGTCACACGTGGTAGG | -0.01
TGCGTCACGTGGGAGA | -0.11
TAGGGCACGTGGACGG | -0.05
AATAACACGTGGTGGA | -0.06
ATATTCACGTGATAAG | 0.22
CAAGTCACGTGTGGAG | 0.33
CGGGTCACGTGTGCCG | 0.16
TGTCACACGTGAGTTA | 0.17
ATTCACACGTGAAGGG | 0.32
GTTGTCACGTGATGGA | 0.27
TGTAGCACGTGTAATT | 0.06
AGGGTCACGTGCGGGG | 0.13
GGATGCACGTGGGGTT | -0.13
GAGTGCACGTGCAGTG | 0.04
GGCAGCACGTGTGAGT | 0.09
AGTTGCACGTGGGGTT | -0.14

Sequence | relative binding free energy [kcal/mol]
AGTGGCACGTGGTGTG | -0.17
ATTTTCACGTGATGGT | 0.33
TTGGACACGTGTATTG | 0.02
TAAAGCACGTGTGGGC | -0.07
AGAGCCACGTGGTTTG | -0.17
GGTGACACGTGGGCTC | -0.06
GGGGCCACGTGGTTTT | -0.01
GTGATCACGTGAGGTC | 0.28
CTGTTCACGTGGGGAT | 0.17
GGTTTCACGTGCTTTC | 0.42
TATGTCACGTGTGTCG | 0.06
TTTCACACGTGAGTTG | 0.33
GGTTCCACGTGAGGCT | 0.28
GCGGACACGTGTTGGC | 0.21
GGGTTCACGTGTTCGC | 0.39
CGTTGCACGTGGGCAG | -0.11
CGATTCACGTGAGAGG | 0.3
CTTTTCACGTGGTGGC | 0.23
TTGTCCACGTGGATTT | 0.22
CGGGTCACGTGAGGGT | 0.28
TGTGACACGTGGTTTA | 0
GTCAACACGTGTGGGG | 0.11
GCGGGCACGTGTGAGG | 0.02
AGAGGCACGTGAGGCT | -0.01
GTATTCACGTGCCTGG | 0.28

Sequence | relative binding free energy [kcal/mol]
TATTGCACGTGTAAGT | -0.02
GAACTCACGTGGTTTT | 0.23
TTAAACACGTGGGAAG | -0.01
CGTATCACGTGTTGGT | 0.14
GAGGCCACGTGTGGTG | 0.06
GGATACACGTGGTTCG | 0.08
CGTTCCACGTGTTTTG | 0.07
GGGAACACGTGCTGTT | -0.01
TTATCCACGTGGTGGA | -0.12
GTTTACACGTGCTAGG | 0.07
ATAGTCACGTGTGTTG | 0.12
GGGTGCACGTGCGAGT | 0
ATCGGCACGTGTGTGC | -0.02
AGTGACACGTGTTACG | 0.06
TAGGACACGTGGGTTT | -0.1
CGTGACACGTGGAGGT | -0.06
TAGTGCACGTGGTACG | -0.12
AGGCGCACGTGTATGG | -0.23
TATACCACGTGGGAGG | -0.15
ATGCGCACGTGGATTG | -0.11
GTATTCACGTGTGATT | 0.34
GGTTTCACGTGTAGCA | 0.18
GCTTACACGTGATGGG | 0.26
AGTACCACGTGGGGTG | -0.25
TAGGACACGTGCGCGG | -0.08

Sequence | relative binding free energy [kcal/mol]
TGGGTCACGTGTGCAA | 0.08
AGTGGCACGTGGTAGG | -0.15
ATAAACACGTGTTATG | -0.14
TAGGACACGTGTAGTA | 0.04
AATGTCACGTGGGAAT | 0.16
TTCGTCACGTGGTGGA | 0.15
ACAGGCACGTGGGTCT | -0.15
AAGAGCACGTGGGGAC | -0.03
AAGGACACGTGATTGA | 0.26
TGGGTCACGTGGATTC | 0.21
TGTATCACGTGCATGT | 0.08
TAGGTCACGTGTGTTT | 0.17
AGATGCACGTGGGGCC | -0.15
TATAGCACGTGTCATT | -0.16
TGATGCACGTGCTTTA | -0.05
GGTAGCACGTGATGTC | 0.19
ATTGGCACGTGTTGAT | 0.03
TCTGGCACGTGGGTAC | -0.27
AATTACACGTGCGGTG | 0.13
CTTTACACGTGTTGAG | 0.06
TTATTCACGTGAGATT | 0.3
CGCATCACGTGGTGTT | 0.02
TACGGCACGTGGGGCG | -0.25
TGATCCACGTGAGGTG | 0.09
ATGAGCACGTGAGGTT | 0.2

Sequence | relative binding free energy [kcal/mol]
TTTCTCACGTGCTGGG | 0.21
GCAGGCACGTGGGTTG | -0.16
CGGTTCACGTGGGTCA | 0.12
TTTTGCACGTGAGAAT | 0.2
TGTTGCACGTGGCGAT | -0.05
TATGTCACGTGATGCG | 0.14
CTTGTCACGTGTACTG | 0.24
GTATCCACGTGAGGTG | 0.32
GGGATCACGTGCGTAT | 0.16
TTAGTCACGTGTCGCG | 0.16
ATTCGCACGTGCGTTT | -0.03
TTATTCACGTGTCGGA | 0.11
ACGGGCACGTGGGTCA | -0.16
TTAGTCACGTGGCAGA | -0.06
TTCGGCACGTGCAGGA | -0.06
GTAATCACGTGTGTGA | 0.18
GTTATCACGTGGTGAG | 0.19
TAGCGCACGTGTAGAG | 0.01
GACAGCACGTGTAGGT | 0.13
AGTGGCACGTGGATTA | -0.06
GTGCTCACGTGGGTTT | 0.13
GTGGTCACGTGGTCTC | 0.14
GCGTACACGTGGATTT | 0.31
TTTGACACGTGTTAAA | 0.05
GAGAGCACGTGCGGCG | -0.03

Sequence | relative binding free energy [kcal/mol]
CGGTACACGTGAGGGG | 0.28
AGGTGCACGTGAGATA | 0.13
GTTGTCACGTGAGGTA | 0.25
AAGTCCACGTGGGGTG | 0
TGTTGCACGTGAACAT | 0.14
CTAGACACGTGTAGGT | 0
GTTGCCACGTGTTTGG | -0.03
TGAGCCACGTGTGGCG | 0.04
CCCGGCACGTGTGGGG | -0.09
CTTATCACGTGGCTGG | 0.06
CGAATCACGTGGGGTG | 0.11
ATTAGCACGTGATGAG | 0.08
TTTATCACGTGTAACT | 0.26
GTCGTCACGTGATCGT | 0.27
TTTTTCACGTGAAGAA | 0.32
CGTTTCACGTGATTTT | 0.31
GCTGGCACGTGTTGTG | -0.17
TAGGGCACGTGTGAGA | -0.07
GTGTACACGTGTTTTG | 0.11
ATGAACACGTGGTTGG | 0
CTGCGCACGTGAGTGG | 0.08
